From the supplement of paper PMC3334620
Whole data set: some 33,000 sequences, median “E-score (-0.5 to 0.5)” near -0.036, cut for the highest 2% near 0.37. The list shows a part of the results.

These sequences were tested against T1, Yer064c (UniProt P40041) (assay: PBM E-score (8-mer binding enrichment) (E-score (-0.5 to 0.5)); higher = stronger / more preferred TF binding; most listed sequences are background and not binding sites). Conditions: protein concentration: 200 nM; construct: GST-full length.
T1 sequence: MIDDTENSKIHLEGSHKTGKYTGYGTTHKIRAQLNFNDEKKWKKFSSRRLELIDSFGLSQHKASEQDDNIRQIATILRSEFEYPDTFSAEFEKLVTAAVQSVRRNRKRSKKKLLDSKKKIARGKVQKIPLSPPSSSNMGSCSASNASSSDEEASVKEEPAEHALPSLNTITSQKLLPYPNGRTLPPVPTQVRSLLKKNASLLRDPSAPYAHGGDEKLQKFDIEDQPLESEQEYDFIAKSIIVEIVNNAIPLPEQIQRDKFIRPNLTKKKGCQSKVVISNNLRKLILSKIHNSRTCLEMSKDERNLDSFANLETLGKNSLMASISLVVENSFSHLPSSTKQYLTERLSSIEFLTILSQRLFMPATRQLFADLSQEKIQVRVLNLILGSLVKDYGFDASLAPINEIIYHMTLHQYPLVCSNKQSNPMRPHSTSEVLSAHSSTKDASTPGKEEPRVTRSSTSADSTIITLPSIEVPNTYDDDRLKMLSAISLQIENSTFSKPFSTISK
Method: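 Universal 'all 10-mer' protein binding microarrays (Agilent AMADID 015681) probed with GST-tagged S. cerevisiae TFs (full-length or DBD) made by in vitro transcription/translation (PURExpress), about 100-200 nM. Bound TF was detected with fluorescent anti-GST. Each ungapped 8-mer (which stands for itself and its reverse complement) is scored by the PBM enrichment score (E-score), a modified Wilcoxon-Mann-Whitney statistic from -0.5 to +0.5, computed with the Universal PBM Analysis Suite. Scale: above 0.35 generally sequence-specific binding.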
With CTACTGTC the “PBM E-score” value was -0.0504. With ACCAAACG the “PBM E-score” value was -0.0651. With GAGGTCCC the “PBM E-score” value was -0.275. ATATTACC was tested, and the “PBM E-score” value was 0.148. TACTAGTA was tested, and the “PBM E-score” value was 0.216. With AATTATCG the “PBM E-score” value was 0.228. With TGCGCACA the “PBM E-score” value was -0.0569. With CGCGGGGC the “PBM E-score” value was -0.15. For GCTAGCAA, the “PBM E-score” value was -0.336. With AGAAGAAA the “PBM E-score” value was -0.0793. AATATAGC was tested, and the “PBM E-score” value was -0.00197. GAGTTCGA was tested, and the “PBM E-score” value was 0.185. With AATCGGGG the “PBM E-score” value was -0.0692. ACATAGGA was tested, and the “PBM E-score” value was -0.166. In the case of GCTCTCGA, the “PBM E-score” value was -0.00707. In the case of CAGCCGCC, the “PBM E-score” value was 0.0131. ACTAGAGC was tested, and the “PBM E-score” value was -0.084. In the case of CCGACTCA, the “PBM E-score” value was 0.441. With CAAGAGTA the “PBM E-score” value was 0.106. In the case of AGTTTGTA, the “PBM E-score” value was -0.0175. In the case of GAGACCAC, the “PBM E-score” value was -0.00898. For CGATCGGA, the “PBM E-score” value was -0.101. In the case of AGGTTGAT, the “PBM E-score” value was 0.103. With ATACCAGC the “PBM E-score” value was -0.163. For CGATTACG, the “PBM E-score” value was 0.0176. For ATATCGAC, the “PBM E-score” value was -0.00454. For CGTATTCA, the “PBM E-score” value was 0.0313. In the case of GACCTACC, the “PBM E-score” value was -0.0594. In the case of ATTTGAAG, the “PBM E-score” value was -0.0752. With CGTGACAC the “PBM E-score” value was 0.0944. In the case of TATAGAGA, the “PBM E-score” value was -0.00508. For CGCGACTC, the “PBM E-score” value was 0.438. In the case of CCATTTCA, the “PBM E-score” value was -0.137. AGCAGATG was tested, and the “PBM E-score” value was -0.101. In the case of CTCATGTA, the “PBM E-score” value was 0.243. In the case of GCAACGAC, the “PBM E-score” value was -0.0989. AATCGAAA was tested, and the “PBM E-score” value was -0.0264. With AAAGCGGG the “PBM E-score” value was -0.0607. With GTGGTGGA the “PBM E-score” value was -0.14. With CCCACAGA the “PBM E-score” value was -0.0634. In the case of ATCAGATA, the “PBM E-score” value was 0.0534. With CGGATAGA the “PBM E-score” value was 0.0559. For AACCTCGT, the “PBM E-score” value was -0.17. For ATCTTAGG, the “PBM E-score” value was -0.159. AGACTAGG was tested, and the “PBM E-score” value was 0.24. With GGTACCTA the “PBM E-score” value was -0.0302. With CGATTAGA the “PBM E-score” value was 0.0752. With ACCCCCCA the “PBM E-score” value was -0.291. In the case of CTGTACTC, the “PBM E-score” value was 0.144. CGACTGAA was tested, and the “PBM E-score” value was 0.257. ACAATGGA was tested, and the “PBM E-score” value was 0.0385. ACGCTTCC was tested, and the “PBM E-score” value was -0.296. For CGCTCCGA, the “PBM E-score” value was 0.0418. In the case of GGTGGCCA, the “PBM E-score” value was -0.183. GAAAGATA was tested, and the “PBM E-score” value was 0.00944. For AGTGGGCG, the “PBM E-score” value was 0.0541. For CGTACTAA, the “PBM E-score” value was 0.146. For AATCCGAC, the “PBM E-score” value was 0.152. With CAAGCGTG the “PBM E-score” value was -0.128. TCTATACA was tested, and the “PBM E-score” value was 0.109. For GACTAAAC, the “PBM E-score” value was 0.435. For CCGTCCCA, the “PBM E-score” value was -0.189. For ATGCTCGA, the “PBM E-score” value was -0.198. In the case of ATGATAAT, the “PBM E-score” value was 0.144. With GGCCTGGA the “PBM E-score” value was -0.325. In the case of CACAAGTC, the “PBM E-score” value was 0.107. For TATAGCGA, the “PBM E-score” value was -0.17. With CTTCGCAA the “PBM E-score” value was -0.0175. In the case of GGGCCATA, the “PBM E-score” value was -0.322. With CTTTGACA the “PBM E-score” value was 0.0261. CACCAGCC was tested, and the “PBM E-score” value was -0.176. In the case of ACGGATAC, the “PBM E-score” value was 0.0529. ACCGGTAG was tested, and the “PBM E-score” value was -0.0894. TCTCTTAA was tested, and the “PBM E-score” value was 0.147. With AAACATGA the “PBM E-score” value was 0.272. For AAAGTGGC, the “PBM E-score” value was -0.206. In the case of GATGGGTA, the “PBM E-score” value was 0.32. For AGTGTCCC, the “PBM E-score” value was -0.088. In the case of AATAATCG, the “PBM E-score” value was 0.104. For GCTCATAA, the “PBM E-score” value was 0.136. ATCAGGTC was tested, and the “PBM E-score” value was 0.123. For GCCTGTAA, the “PBM E-score” value was -0.0134. In the case of ATATCTAC, the “PBM E-score” value was 0.0277. In the case of CGGTTGTC, the “PBM E-score” value was -0.144. In the case of GCGACTAA, the “PBM E-score” value was 0.442. With ATCTTCCA the “PBM E-score” value was 0.0233.
